Reference: the supplement of paper PMC12217912
Some of the results follow. Sequences were assembled here from the parent chain. Inactive controls read about 0.05.

B1: TEV protease; numbered along this chain (parent)
chain: MGESLFKGPRDYNPISSSICHLTNESDGHTTSLYGIGFGPFIITNKHLFRRNNGTLVVQSLHGVFKVKDTTTLQQHLVDGRDMIIIRMPKDFPPFPQKLKFREPQREERICLVTTNFQTKSMSSMVSDTSCTFPSGDGIFWKHWIQTKDGQCGSPLVSTRDGFIVGIHSASNFTNTNNYFTSVPKNFMELLTNQEAQQWVSGWRLNADSVLWGGHKVFMVKPEEPFQPVKEATQL

Variants of: B1
Experiment: raw area under fraction-flipped curve 0-4 h after induction (AUC4h, not background-subtracted), DNA-recorder readout of cleavage of the substrate (dimensionless); higher = more cleavage of the substrate by the protease variant
Details: temperature: 34 °C; time window: 0-4 h after rhamnose induction
Experimental: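 In vivo DNA recorder in E. coli TOP10(DE3) ΔrhaA at 34 °C. Each TEVp single-site mutant (parent TEVp 0) is paired with a single-site variant of the 7-mer TEVs (canonical ENLYFQ|S). The substrate sits between flexible linkers in a Bxb1-sfGFP-TEVs-SsrA fusion, so cleavage stabilises Bxb1 and speeds flipping of a recombination array, read by NGS. The value is the raw area under the fraction-flipped curve over 0-4 h after rhamnose induction (AUC4h), with ≥20 reads per time point. It is not background-subtracted; inactive controls average about 0.047.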
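Further: Bxb1 expression induced with 0.2% (w/v) L-rhamnose at OD600 near 0.5, cultures sampled hourly, flipped fraction per protease–substrate barcode pair counted by paired-end Illumina sequencing.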

Variant | area with substrate CNLYFQS | area with substrate DNLYFQS | area with substrate GNLYFQS | area with substrate HNLYFQS | area with substrate INLYFQS | area with substrate RNLYFQS | area with substrate SNLYFQS | area with substrate TNLYFQS | area with substrate FNLYFQS | area with substrate KNLYFQS | area with substrate LNLYFQS | area with substrate NNLYFQS | area with substrate VNLYFQS | area with substrate WNLYFQS | area with substrate YNLYFQS | area with substrate MNLYFQS | area with substrate PNLYFQS | area with substrate QNLYFQS
MGESLFKGYRDYNPISSSICHLTNESDGHTTSLYGIGFGPFIITNKHLFRRNNGTLVVQSLHGVFKVKDTTTLQQHLVDGRDMIIIRMPKDFPPFPQKLKFREPQREERICLVTTNFQTKSMSSMVSDTSCTFPSGDGIFWKHWIQTKDGQCGSPLVSTRDGFIVGIHSASNFTNTNNYFTSVPKNFMELLTNQEAQQWVSGWRLNADSVLWGGHKVFMVKPEEPFQPVKEATQL [P9Y] | 0.0633 | 0.118 | 0.0849 | 0.0659 | 0.0537 | 0.0655 | 0.0776 | 0.0695 | – | – | – | – | – | – | – | – | – | –
MGESLFKGKRDYNPISSSICHLTNESDGHTTSLYGIGFGPFIITNKHLFRRNNGTLVVQSLHGVFKVKDTTTLQQHLVDGRDMIIIRMPKDFPPFPQKLKFREPQREERICLVTTNFQTKSMSSMVSDTSCTFPSGDGIFWKHWIQTKDGQCGSPLVSTRDGFIVGIHSASNFTNTNNYFTSVPKNFMELLTNQEAQQWVSGWRLNADSVLWGGHKVFMVKPEEPFQPVKEATQL [P9K] | 0.0565 | 0.0675 | – | 0.0528 | 0.0623 | 0.0546 | – | – | 0.0546 | 0.0657 | 0.0723 | 0.0814 | 0.078 | 0.0498 | 0.061 | – | – | –
MDESLFKGPRDYNPISSSICHLTNESDGHTTSLYGIGFGPFIITNKHLFRRNNGTLVVQSLHGVFKVKDTTTLQQHLVDGRDMIIIRMPKDFPPFPQKLKFREPQREERICLVTTNFQTKSMSSMVSDTSCTFPSGDGIFWKHWIQTKDGQCGSPLVSTRDGFIVGIHSASNFTNTNNYFTSVPKNFMELLTNQEAQQWVSGWRLNADSVLWGGHKVFMVKPEEPFQPVKEATQL [G2D] | 0.0764 | 0.0807 | 0.076 | 0.0649 | 0.0999 | – | 0.0653 | 0.0795 | – | 0.0865 | 0.0536 | – | – | 0.0489 | 0.0687 | 0.0739 | 0.0645 | –
MGESLFKGPRDYYPISSSICHLTNESDGHTTSLYGIGFGPFIITNKHLFRRNNGTLVVQSLHGVFKVKDTTTLQQHLVDGRDMIIIRMPKDFPPFPQKLKFREPQREERICLVTTNFQTKSMSSMVSDTSCTFPSGDGIFWKHWIQTKDGQCGSPLVSTRDGFIVGIHSASNFTNTNNYFTSVPKNFMELLTNQEAQQWVSGWRLNADSVLWGGHKVFMVKPEEPFQPVKEATQL [N13Y] | 0.0657 | 0.0937 | 0.0845 | – | 0.0584 | – | 0.173 | – | – | – | 0.0797 | 0.0887 | 0.0677 | 0.0397 | – | – | 0.0626 | 0.0565
MGETLFKGPRDYNPISSSICHLTNESDGHTTSLYGIGFGPFIITNKHLFRRNNGTLVVQSLHGVFKVKDTTTLQQHLVDGRDMIIIRMPKDFPPFPQKLKFREPQREERICLVTTNFQTKSMSSMVSDTSCTFPSGDGIFWKHWIQTKDGQCGSPLVSTRDGFIVGIHSASNFTNTNNYFTSVPKNFMELLTNQEAQQWVSGWRLNADSVLWGGHKVFMVKPEEPFQPVKEATQL [S4T] | 0.0724 | 0.0072 | – | 0.0677 | – | – | 0.0626 | 0.0651 | 0.0645 | – | – | – | – | 0.0461 | 0.0646 | 0.0779 | – | –
MGEWLFKGPRDYNPISSSICHLTNESDGHTTSLYGIGFGPFIITNKHLFRRNNGTLVVQSLHGVFKVKDTTTLQQHLVDGRDMIIIRMPKDFPPFPQKLKFREPQREERICLVTTNFQTKSMSSMVSDTSCTFPSGDGIFWKHWIQTKDGQCGSPLVSTRDGFIVGIHSASNFTNTNNYFTSVPKNFMELLTNQEAQQWVSGWRLNADSVLWGGHKVFMVKPEEPFQPVKEATQL [S4W] | 0.0547 | 0.0705 | 0.0772 | 0.0647 | 0.0912 | – | – | 0.0638 | – | 0.0769 | 0.0635 | 0.0623 | – | 0.058 | 0.0654 | 0.0652 | 0.0749 | –
MGESLFKGPEDYNPISSSICHLTNESDGHTTSLYGIGFGPFIITNKHLFRRNNGTLVVQSLHGVFKVKDTTTLQQHLVDGRDMIIIRMPKDFPPFPQKLKFREPQREERICLVTTNFQTKSMSSMVSDTSCTFPSGDGIFWKHWIQTKDGQCGSPLVSTRDGFIVGIHSASNFTNTNNYFTSVPKNFMELLTNQEAQQWVSGWRLNADSVLWGGHKVFMVKPEEPFQPVKEATQL [R10E] | 0.0637 | 0.0316 | 0.0357 | 0.0665 | 0.0554 | 0.0594 | 0.0785 | 0.0658 | – | – | 0.0659 | – | – | – | – | – | 0.0623 | –
MGESLFKGPQDYNPISSSICHLTNESDGHTTSLYGIGFGPFIITNKHLFRRNNGTLVVQSLHGVFKVKDTTTLQQHLVDGRDMIIIRMPKDFPPFPQKLKFREPQREERICLVTTNFQTKSMSSMVSDTSCTFPSGDGIFWKHWIQTKDGQCGSPLVSTRDGFIVGIHSASNFTNTNNYFTSVPKNFMELLTNQEAQQWVSGWRLNADSVLWGGHKVFMVKPEEPFQPVKEATQL [R10Q] | 0.0644 | 0.1 | 0.0721 | 0.0703 | 0.0679 | 0.0543 | – | 0.0697 | 0.0601 | 0.068 | 0.0513 | – | – | 0.065 | 0.0563 | 0.0673 | 0.0604 | –
MGESLFKGPHDYNPISSSICHLTNESDGHTTSLYGIGFGPFIITNKHLFRRNNGTLVVQSLHGVFKVKDTTTLQQHLVDGRDMIIIRMPKDFPPFPQKLKFREPQREERICLVTTNFQTKSMSSMVSDTSCTFPSGDGIFWKHWIQTKDGQCGSPLVSTRDGFIVGIHSASNFTNTNNYFTSVPKNFMELLTNQEAQQWVSGWRLNADSVLWGGHKVFMVKPEEPFQPVKEATQL [R10H] | 0.067 | 0.0679 | 0.0608 | 0.082 | 0.102 | 0.0684 | 0.0564 | 0.0691 | 0.0579 | – | 0.0667 | 0.0753 | – | 0.0591 | – | 0.0509 | 0.0602 | –
MGESLVKGPRDYNPISSSICHLTNESDGHTTSLYGIGFGPFIITNKHLFRRNNGTLVVQSLHGVFKVKDTTTLQQHLVDGRDMIIIRMPKDFPPFPQKLKFREPQREERICLVTTNFQTKSMSSMVSDTSCTFPSGDGIFWKHWIQTKDGQCGSPLVSTRDGFIVGIHSASNFTNTNNYFTSVPKNFMELLTNQEAQQWVSGWRLNADSVLWGGHKVFMVKPEEPFQPVKEATQL [F6V] | 0.0703 | 0.0928 | – | 0.0846 | – | – | 0.0755 | 0.0728 | 0.0641 | – | 0.0914 | – | 0.0807 | 0.0741 | 0.0504 | – | 0.0593 | 0.0669
